Results taken from the supplement of paper PMC8728848.
The other results are listed elsewhere or left out.

What was measured:
Experiment in all cases: glycan array binding signal (z-score within array); higher = stronger binding
Conditions in all cases: glycan notation: IUPAC condensed, linker removed
[1] = molecular target: Neu5Ac(a2-6)Gal(b1-4)GlcNAc(b1-2)Man(a1-3)[Gal(b1-4)GlcNAc(b1-2)Man(a1-6)]Man(b1-4)GlcNAc(b1-4)GlcNAc
Outline: (§1)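 Glycan array binding is given as a within-array Z-score, which can be read as non-binding when negative. The arrays, 3228 of them, came from the Consortium for Functional Glycomics database and were retained only where the protein sequence was available. Z-scores were averaged across arrays of the same protein sequence at different concentrations or buffers and across linkers.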

[2] = molecular target: Neu5Ac(a2-6)Gal(b1-4)GlcNAc(b1-2)Man(a1-3)[GlcNAc(b1-2)Man(a1-6)]Man(b1-4)GlcNAc(b1-4)GlcNAc
Outline: as §1

[3] = molecular target: Neu5Ac(a2-6)Gal(b1-4)GlcNAc(b1-2)Man(a1-3)[GlcNAc(b1-2)Man(b1-4)GlcNAc(b1-2)Man(a1-6)]Man(b1-4)GlcNAc(b1-4)GlcNAc
Outline: as §1

[4] = molecular target: Neu5Ac(a2-6)Gal(b1-4)GlcNAc(b1-2)Man(a1-3)[Neu5Ac(a2-6)Gal(b1-4)GlcNAc(b1-2)Man(a1-6)]Man(b1-4)GlcNAc(b1-4)GlcNAc
Outline: as §1

[5] = molecular target: Neu5Ac(a2-6)Gal(b1-4)GlcNAc(b1-2)Man(a1-6)[Gal(b1-4)GlcNAc(b1-2)Man(a1-3)]Man(b1-4)GlcNAc(b1-4)GlcNAc
Outline: as §1

[6] = molecular target: Neu5Ac(a2-6)Gal(b1-4)GlcNAc(b1-2)Man(a1-6)[GlcNAc(b1-2)Man(a1-3)]Man(b1-4)GlcNAc(b1-4)GlcNAc
Outline: as §1

[7] = molecular target: Neu5Ac(a2-6)Gal(b1-4)GlcNAc(b1-3)Gal(b1-4)GlcNAc
Outline: as §1

[8] = molecular target: Neu5Ac(a2-6)Gal(b1-4)GlcNAc(b1-3)Gal(b1-4)[Fuc(a1-3)]GlcNAc(b1-3)Gal(b1-4)[Fuc(a1-3)]GlcNAc
Outline: as §1

[9] = molecular target: Neu5Ac(a2-6)Gal(b1-4)GlcNAc6S
Outline: as §1

Neu5Ac(a2-6)GalNAc = molecular target: Neu5Ac(a2-6)GalNAc
Outline: as §1

[10] = molecular target: Neu5Ac(a2-6)GalNAc(b1-4)GlcNAc
Outline: as §1

Neu5Ac(a2-8)Neu5Ac = molecular target: Neu5Ac(a2-8)Neu5Ac
Outline: as §1

[11] = molecular target: Neu5Ac(a2-8)Neu5Ac(a2-3)Gal(b1-4)Glc
Outline: as §1

[12] = molecular target: Neu5Ac(a2-8)Neu5Ac(a2-3)[GalNAc(b1-4)]Gal(b1-4)Glc
Outline: as §1

[13] = molecular target: Neu5Ac(a2-8)Neu5Ac(a2-8)Neu5Ac
Outline: as §1

[14] = molecular target: Neu5Ac(a2-8)Neu5Ac(a2-8)Neu5Ac(a2-3)Gal(b1-4)Glc
Outline: as §1

[15] = molecular target: Neu5Ac(a2-8)Neu5Ac(a2-8)Neu5Ac(a2-3)[GalNAc(b1-4)]Gal(b1-4)Glc
Outline: as §1

[16] = molecular target: Neu5Ac(a2-8)Neu5Ac(a2-8)Neu5Ac(a2-8)Neu5Ac(a2-3)[GalNAc(b1-4)]Gal(b1-4)Glc
Outline: as §1

[17] = molecular target: Neu5Ac(b2-6)Gal(b1-4)GlcNAc
Outline: as §1

Neu5Ac(b2-6)GalNAc = molecular target: Neu5Ac(b2-6)GalNAc
Outline: as §1

[18] = molecular target: Neu5Ac9Ac(a2-6)Gal(b1-4)GlcNAc
Outline: as §1

[19] = molecular target: Neu5Gc(a2-3)Gal(b1-3)GlcNAc
Outline: as §1

[20] = molecular target: Neu5Gc(a2-3)Gal(b1-3)[Fuc(a1-4)]GlcNAc
Outline: as §1

Neu5Gc(a2-3)Gal(b1-4)Glc = molecular target: Neu5Gc(a2-3)Gal(b1-4)Glc
Outline: as §1

[21] = molecular target: Neu5Gc(a2-3)Gal(b1-4)GlcNAc
Outline: as §1

[22] = molecular target: Neu5Gc(a2-3)Gal(b1-4)[Fuc(a1-3)]GlcNAc
Outline: as §1

[23] = molecular target: Neu5Gc(a2-6)Gal(b1-4)GlcNAc
Outline: as §1

Neu5Gc(a2-6)GalNAc = molecular target: Neu5Gc(a2-6)GalNAc
Outline: as §1

[24] = molecular target: Neu5Gc(b2-6)Gal(b1-4)GlcNAc
Outline: as §1

B1: P-Selectin (Homo sapiens), P16109 (protein)
chain: MANCQIAILYQRFQRVVFGISQLLCFSALISELTNQKEVAAWTYHYSTKAYSWNISRKYCQNRYTDLVAIQNKNEIDYLNKVLPYYSSYYWIGIRKNNKTWTWVGTKKALTNEAENWADNEPNNKRNNEDCVEIYIKSPSAPGKWNDEHCLKKKHALCYTASCQDMSCSKQGECLETIGNYTCSCYPGFYGPECEYVRECGELELPQHVLMNCSHPLGNFSFNSQCSFHCTDGYQVNGPSKLECLASGIWTNKPPQCLAAQCPPLKIPERGNMTCLHSAKAFQHQSSCSFSCEEGFALVGPEVVQCTASGVWTAPAPVCKAVQCQHLEAPSEGTMDCVHPLTAFAYGSSCKFECQPGYRVRGLDMLRCIDSGHWSAPLPTCEAISCEPLESPVHGSMDCSPSLRAFQYDTNCSFRCAEGFMLRGADIVRCDNLGQWTAPAPVCQALQCQDLPVPNEARVNCSHPFGAFRYQSVCSFTCNEGLLLVGASVLQCLATGNWNSVPPECQAIPCTPLLSPQNGTMTCVQPLGSSSYKSTCQFICDEGYSLSGPERLDCTRSGRWTDSPPMCEAIKCPELFAPEQGSLDCSDTRGEFNVGSTCHFSCDNGFKLEGPNNVECTTSGRWSATPPTCKGIASLPTPGLQCPALTTPGQGTMYCRHHPGTFGFNTTCYFGCNAGFTLIGDSTLSCRPSGQWTAVTPACRAVKCSELHVNKPIAMNCSNLWGNFSYGSICSFHCLEGQLLNGSAQTACQENGHWSTTVPTCQAGPLTIQEASTSITAYKSEGESAEFSFPLNLGEESLQGELRWKAEKAPSSQSWITFSLKNQKVSVQKSTSNPKFQLSETLPLTLQIPQVSLQFAGSGNLTLTLDRGILYQEVNLVVMKVTQPDSNTLTCEVMGPTSPKMRLILKQENQEARVSRQEKVIQVQAPEAGVWQCLLSEGEEVKMDSKIQVLSKGLNSGGGSGGGTGGGDLAPQMLRELQETNAALQDVRELLRQQVKEITFLKNTVMECDACGLDRNLPPLAPLGPHPETLVKVKDAEDQLGARVGYIELDLNSGKILESFRPEERFPMMSTFKVLLCGAVLSRIDAGQEQLGRRIHYSQNDLVEYSPVTEKHLTDGMTVRELCSAAITMSDNTAANLLLTTIGGPKELTAFLHNMGDHVTRLDRWEPELNEAIPNDERDTTMPVAMATTLRKLLTGELLTLASRQQLIDWMEADKVAGPLLRSALPAGWFIADKSGAGERGSRGIIAALGPDGKPSRIVVIYTTGSQATMDERNRQIAEIGASLIKHWGPDYKDHDGDYKDHDIDYKDDDDKGPHHHHHH
glycan array binding signal (z-score) [1]: -0.005
glycan array binding signal (z-score) [2]: -0.101
glycan array binding signal (z-score) [3]: -0.079
glycan array binding signal (z-score) [4]: -0.139
glycan array binding signal (z-score) [5]: -0.304
glycan array binding signal (z-score) [6]: -0.313
glycan array binding signal (z-score) [7]: 0.327
glycan array binding signal (z-score) [8]: -0.024
glycan array binding signal (z-score) [9]: 0.362
glycan array binding signal (z-score) (Neu5Ac(a2-6)GalNAc): -0.32
glycan array binding signal (z-score) [10]: -0.322
glycan array binding signal (z-score) (Neu5Ac(a2-8)Neu5Ac): 0.108
glycan array binding signal (z-score) [11]: -0.226
glycan array binding signal (z-score) [12]: -0.159
glycan array binding signal (z-score) [13]: -0.232
glycan array binding signal (z-score) [14]: -0.234
glycan array binding signal (z-score) [15]: -0.193
glycan array binding signal (z-score) [16]: -0.169
glycan array binding signal (z-score) [17]: -0.407
glycan array binding signal (z-score) (Neu5Ac(b2-6)GalNAc): -0.397
glycan array binding signal (z-score) [18]: -0.349
glycan array binding signal (z-score) [19]: -0.429
glycan array binding signal (z-score) [20]: 4.38
glycan array binding signal (z-score) (Neu5Gc(a2-3)Gal(b1-4)Glc): -0.063
glycan array binding signal (z-score) [21]: -0.117
glycan array binding signal (z-score) [22]: 0.77
glycan array binding signal (z-score) [23]: -0.28
glycan array binding signal (z-score) (Neu5Gc(a2-6)GalNAc): -0.391
glycan array binding signal (z-score) [24]: -0.204
